The record followed here is US20250281631A1, “ANTIBODY-DRUG CONJUGATES AND PREPARATION METHODS AND USE THEREOF” (SICHUAN KELUN-BIOTECH BIOPHARMACEUTICAL CO., LTD, priority 2022, published 2025).

By T/C is commonly meant the ratio of treated to control. In general, TGI refers to the reduction of tumour growth relative to the control group. Read a low TGI as little slowing of growth.

The test system of experiment [1] is A431 cells. In words: Cell affinity of anti-human HER3 antibodies and ADCs by flow cytometry. The format is binding. The following applies: Table 32. From the text:
(§1) 1. Detection of Cell Affinity of Anti-Human HER3 Antibodies and their Drug Conjugates
(§2) The affinity of anti-human HER3 ADC to MDA-MB-453, NCI-H358, KPL-4, and A431 cells was detected by flow cytometry (Beckman, model Cytoflex).
(§3) Adherent MDA-MB-453, NCI-H358, KPL-4, A431 cells were digested with Tryple (manufacturer: Gibco) solution, counted, and an appropriate amount of the cells were taken, washed twice with 1×PBS, resuspended in 1% BSA in PBS solution, and then transferred to a 96-well sharp-bottom plate, 50 μl per well; candidate antibodies and drug conjugates thereof were diluted with 1% BSA in PBS solution by 3-fold or 2.5-fold serial dilution starting from 5 μg/mL, and then 50 μl of the diluted antibody or antibody-drug conjugate was added to the sharp-bottom plate containing the cells, and incubation was carried out at 4° C. for 40 minutes; the cells were washed twice with PBS, then added with 50 μl of diluted secondary antibody to each well, mixed, and incubated at 4° C. for 30 minutes; the cells were washed with PBS twice, then resuspended in 400 μl of PBS and detected by flow cytometry. Data processing: the average fluorescence signal values were exported, and then input into GraphPad Prism 6 software to calculate EC50. The results were shown in Table 32 and FIGS. 1A, 1B, 1C, and 1D. […] Moreover, when the naked antibody was formed into ADC through conjugation, the affinity to cells was less affected, and the affinity of 22B6 formed into ADC by conjugation was still the highest.
On the technique in general: In flow cytometry, cells or beads pass a laser one at a time.

Experiment [2] concerns KPL-4 cells. The experiment is described as above. The format is binding. The following applies: Table 32.
Excerpt: as §1, §2, §3

In experiment [3] the test system is NCI-H358 cells. The experiment is described as above. The experiment is classed as binding. The following applies: Table 32.
Excerpt: as §1, §2, §3

The subject of experiment [4] is NCI-N87 gastric cancer xenograft model. In words: In vivo drug efficacy in NCI-N87 CDX model. Also on record: species or system female BALB/c-nu mice. The following applies: 3 mg/kg; for T/C / TGI / Tumor volume (x ± SEM): tail vein injection Day 0, 4, 7, Day 32; for growth inhibition rate (TGI): tail vein, Day 0, Day 4 and Day 7, Day 32. From the text:
The following formula was used to calculate the tumor growth inhibition rate TGI (%), which was used to evaluate the tumor inhibitory efficacy:
[formula] • wherein, • VTend represented a mean value of tumor volume at the end of the experiment in a treatment group • VTstart represented a mean value of tumor volume at the beginning of the administration in a treatment group • VCend represented a mean value of tumor volume at the end of the experiment in the negative control group • VCstart represented a mean value of tumor volume at the beginning of the administration in the negative control group
6. Detection of In Vivo Drug Efficacy of Anti-Human HER3 Antibody-Drug Conjugates in N87 Model
NCI-N87 cells were cultured at 37° C. with 5% CO2 in RPMI1640 medium containing 10% fetal bovine serum. The NCI-N87 cells in the exponential growth phase were collected, resuspended in PBS to an appropriate concentration, and inoculated subcutaneously in female BALB/c-nu mice to establish a human gastric cancer model. When the average volume of tumor was about 120 mm^3, the animals are randomly divided into groups according to the tumor size, including: vehicle control group, hIgG1-A-07-A 3 mg/kg group, ADC 22B6-A-07-A-1 3 mg/kg group, ADC 47A3-A-07-A 3 mg/kg group, and ADC 100H7-A-07-A 3 mg/kg group. All animals were administered via injection through tail vein on Day 0, Day 4 and Day 7, and 3 times in total. After administration, the tumor diameter was measured twice a week with a vernier caliper, and the tumor volume was calculated according to the following formula: V=0.5 a×b^2, wherein a and b represented the long and short diameters of tumor, respectively, and the death of animals was observed and recorded every day.

B1: 47A3-A-07-A: ADC of antibody 47A3E3-hIgG1 conjugated to drug-linker A-07-A, DAR 6.27 (conjugate)
heavy: EVQLQESGPGLVKPSQTLSLTCAISGDSVSSSQSTWNWIRQSPSRGLEWLGRTFYRSRWYNDYALSMKSRITINPDTSKNQFSLQLNPVTPEDTAVYYCARDTYYYGSGGFDYWGQGSRVTVSSASTKGPSVFPLAPSSKSTSGGTAALGCLVKDYFPEPVTVSWNSGALTSGVHTFPAVLQSSGLYSLSSVVTVPSSSLGTQTYICNVNHKPSNTKVDKRV[in this place human IgG1 Fc]
light: DIQMTQSPSTLSASVGDRVTITCRASQSLSRWLAWYQQKPEKAPKLLIYKASSLESGVPSRFSGSGSGTEFTLTISTLQPDDFATYYCQQYKNYYSFGQGTKLEIKRTVAAPSVFIFPPSDEQLKSGTASVVCLLNNFYPREAKVQWKVDNALQSGNSQESVTEQDSKDSTYSLSSTLTLSKADYEKHKVYACEVTHQGLSSPVTKSFNRGEC
B1 registered an EC50 cell affinity in experiment [1] of 0.0656 µg/mL. This molecule also returned an EC50 cell affinity in experiment [2] of 0.1246 µg/mL. The same molecule had an EC50 cell affinity in experiment [3] of 0.1576 µg/mL. In experiment [4], the T/C is 60.12%, the TGI was 47.24%, the “Tumor volume (x ± SEM)” value came to 468.82 ± 36.48 mm^3 and the “growth inhibition rate (TGI)” value turned out to be 47.24%. Further, the “inhibitor effect on the tumor growth” value in experiment [4] (result in words) is “significant inhibitor effect on the tumor growth”.

B2: 100H7-A-07-A (conjugate)
heavy: EVQLVESGGGVVLPGRSLRLSCAASGFTFSRNAMHWVRQAPGKGLEWVAVIWHDGSNKYYGDSVKGRFTISRDNSKNTLYLQMDSLTAEDTAVYYCARDRGASDFRGQGTLVTVSSASTKGPSVFPLAPSSKSTSGGTAALGCLVKDYFPEPVTVSWNSGALTSGVHTFPAVLQSSGLYSLSSVVTVPSSSLGTQTYICNVNHKPSNTKVDKRV[in this place human IgG1 Fc]
light: DIQMTQSPSTLSASVGDRVTITCRASQSINNWLAWYQQKPEKAPKLLIYKASSLESGVPSRFSGSGSGTEFTLTISSLQPDDFATYYCQQYNSYSLTFGGGTKVEIKRTVAAPSVFIFPPSDEQLKSGTASVVCLLNNFYPREAKVQWKVDNALQSGNSQESVTEQDSKDSTYSLSSTLTLSKADYEKHKVYACEVTHQGLSSPVTKSFNRGEC
In experiment [1], B2 came in with an EC50 cell affinity of 0.2659 µg/mL. The EC50 cell affinity in experiment [2] was determined as 0.2744 µg/mL. The EC50 cell affinity in experiment [3] came out at 0.4274 µg/mL. Further, in experiment [4], the T/C is listed as 69.52%, the TGI is on record as 36.04%, the “Tumor volume (x ± SEM)” value was 542.62 ± 58.59 mm^3 and the “growth inhibition rate (TGI)” value was 36.04%.
